In patent US20240132588A1 (SHAPERON, published 2024):

Legend:
[1] = molecular target: T1, CD47 antigen expressed on Expi-CHO_CD47 cells (human, UniProt Q08722); experiment: FACS on Expi-CHO_CD47 cells, anti-human IgG Fc APC detection
T1 construct: whole, on cells; also called Expi-CHO cells that constantly express the CD47 antigen

[2] = molecular target: T1, CD47 antigen expressed on Expi-CHO_CD47 …; experiment: FACS competition: displacement of human SIRPalpha-His (10 µg/ml) from Expi-CHO_CD47 cells
[3] = molecular target: T2, CD47 protein (CD47 antigen, soluble, Octet analyte) (human, UniProt Q08722 in part, limits assumed); experiment: BLI (Octet RED 96e), HCAb on anti-human Fc tips, CD47 antigen 10-400 nM, 1:1 global fit
T2 construct: Recombinant soluble CD47 used as analyte at 10 to 400 nM; The construct is not described; also called immune antigen protein; human CD47 protein

B1: Anti-CD47 HCAb (CD47 Nb #02-IgG1) (Fc fusion)
heavy: QVQLVESGGGLVQPGGSLRLSCTASGSTLNYYIISWFRQTPGKEREGVSCIGSSGAGTNYAASVKGRFTISRDDAQNTVYLFMNDLKPEDTAVYYCAARPFSFSPFCTFAGMKDWGKGTLVTVSSGPGGP[human IgG1 Fc with changes left out here]
notes: Heavy chain-only antibody: alpaca VHH CD47 Nb#02 fused to a human IgG1 Fc domain, expressed in Expi-CHO cells
**Q.** With B1 as the binder, how does the EC50 [1] read?
**A.** The EC50 was 14.6 nM.

**Q.** What about the IC50 [2] of the same binder?
**A.** The IC50 was 75.2 nM.

**Q.** And the Kd [3]?
**A.** The Kd was 5.07 nM.

**Q.** What about the koff [3] of the same binder?
**A.** Its koff is 0.000721 s⁻¹.

**Q.** And the kon [3]?
**A.** Its kon is 142000 M⁻¹ s⁻¹.
